{"source": "a protein production outcome set (Wang et al. 2014)", "assay": "label from the status in PepcDB records"}
{"sequence": "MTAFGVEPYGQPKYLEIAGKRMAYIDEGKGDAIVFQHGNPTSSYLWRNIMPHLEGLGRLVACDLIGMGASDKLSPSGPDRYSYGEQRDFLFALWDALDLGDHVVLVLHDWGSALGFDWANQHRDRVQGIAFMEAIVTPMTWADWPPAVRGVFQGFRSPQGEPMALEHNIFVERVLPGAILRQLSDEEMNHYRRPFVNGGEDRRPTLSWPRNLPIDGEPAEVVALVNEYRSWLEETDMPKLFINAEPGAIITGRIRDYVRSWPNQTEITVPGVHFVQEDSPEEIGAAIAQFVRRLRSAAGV", "values": [{"measurement": "protein production", "value": "not failed"}]}
